PubChem BioAssay AID1508642 (National Center for Advancing Translational Sciences (NCATS), 2021)
Hit rate of the full screen: of about 43,000 compounds, about 200 (0.47%) were called active. About 12% were inconclusive and are not listed. Calls follow the shape of the dose curve; as a rule, active = well fitted cell-killing curve with a large enough effect; inconclusive = small, poorly fitted or top-dose-only effect, or effect the other way; inactive = flat fitted curve, though single readings scatter. The list shows a part of the results.

assay: Cell viability qHTS assay in S16 Pmp22-F2sN cells; conditions: S16 Pmp22-F2sN Schwann cells viability, CellTiter-Glo, 24 h; series mostly up to 57.5 µM; activity change, negative = cytotoxicity: at the top concentration; also: nearly all actives have a fitted effect of over 65% in size
Summary of the method: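 S16 Pmp22-F2sN Schwann cells (500-1,000/well) in phenol-red-free DMEM with 10% FBS received 23 nL compound by pin tool for 24 h at 37 °C. Viability was then read as CellTiter-Glo luminescence after 15 min at room temperature.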
% is scaled to controls: 0 for no effect and ±100 for the full control effect.

| Compound | activity change, negative = cytotoxicity |
| --- | --- |
| Cc1cccc(C)c1-n1ncc(C(=O)NCCCN2CCCCC2)c1C1CCN(C(=O)OC(C)(C)C)CC1 | inactive: -27.7% |
| Cc1c(C)n(Cc2ccccc2)c2ccc(C(=O)N3CCN(c4ccccc4F)CC3)cc12 | inactive: 8.75% |
| Cc1nc2ccn(Cc3cccnc3)c(=O)c2cc1C(=O)N1CCN(c2ccccc2F)CC1 | inactive: -1.86% |
| O=C(NCCc1ccc(Cl)cc1)c1cc(-c2ccccc2)n[nH]1 | inactive: -11.9% |
| COc1ccc(SCc2cc(=O)c3ccc(C)c(C)c3[nH]2)cc1 | inactive: 6.01% |
| Cc1ccc(Sc2ccc(N3CCCC(C(=O)Nc4ccc(Br)cc4)C3)nn2)cc1 (stereo not drawn) | inactive: 4.63% |
| COc1ccc(C2=C(C)C(N3CCC(C(=O)NCc4ccc(C)o4)CC3)=NS2(=O)=O)cc1 | inactive: 6.59% |
| CCOc1ccc(-c2nnc(SCC(=O)NC3CCCCC3)nc2-c2ccc(OCC)cc2)cc1 | inactive: 24% |
| COc1ccc2c(c1)Cc1sc(NC(=O)c3ccccc3C)nc1-2 | inactive: -18.1% |
| O=C(NC1CCCC1)c1ccc2c(=O)n(Cc3ccccc3)c(SCc3ccc([N+](=O)[O-])cc3)nc2c1 | inactive: 6.57% |
| CCc1ccc(NC(=O)Nc2cn(C)c(=O)c3ccccc23)cc1 | inactive: -15.6% |
| CCN(CCCNC(=O)CSc1cc(=O)n(CC)c2ccccc12)c1ccccc1 | inactive: -8.93% |
| CCc1ccc(-n2nc(CO)c(C(=O)NC(C)c3ccc(Cl)cc3)n2)cc1 (stereo not drawn) | inactive: -3.35% |
| COc1cccc(CNC(=O)CN2C(=O)CCc3cc(S(=O)(=O)N4CCOCC4)ccc32)c1 | inactive: -25.6% |
| COc1ccc(OC)c2sc(N(Cc3cccnc3)C(C)=O)nc12 | inactive: -0.951% |
| CCOC(=O)N1CCN(Cc2nc3cc(NC(=O)CC)ccc3n2C(C)C)CC1 | inactive: -16.7% |
| CCc1ccccc1NC(=O)Cn1nc(C(F)(F)F)c2c1CCC2 | inactive: 15.5% |
| Cc1cc(C)c2c(CC(=O)Nc3ccccc3C(F)(F)F)coc2c1 | inactive: 2.49% |
| COc1ccc(S(=O)(=O)c2c(O)c3ccc(C(=O)Nc4ccccc4)cc3[nH]c2=O)cc1 | inactive: 18.1% |
| Cc1nn2c(=O)cc(COC(=O)c3cccs3)nc2s1 | inactive: -25.8% |
| CSc1ccc(CCNC(=O)c2ccc3c(Cl)c4c(nc3c2)CCCC4)cc1 | inactive: 21.2% |
| CCCSc1ncc(Cl)c(C(=O)Nc2nc3ccc(C)cc3s2)n1 | inactive: 5.51% |
| CCOC(=O)c1ccccc1NC(=O)Cn1c(=O)n(Cc2nc(C)no2)c(=O)c2ccccc21 | inactive: -0.0859% |
| CN(c1ccccc1C(=O)O)S(=O)(=O)c1ccc2[nH]c(=O)oc2c1 | inactive: 9.74% |
| O=C(CCn1c(=O)c2ccccc2n(Cc2cccc(Cl)c2)c1=O)NCCc1ccccc1 | inactive: 12.3% |

| Compound | activity change, negative = cytotoxicity |
| --- | --- |
| Cc1cccc(NC(=O)C2CCN(c3nnc(C)c4c(C)n(-c5ccccc5)nc34)CC2)c1C | inactive: 12.9% |
| Cc1ccc(Cl)cc1NC(=O)C1CCCN(c2cnccn2)C1 (stereo not drawn) | inactive: -5.15% |
| O=C(NCc1ccccc1)C(=O)NCC(c1ccco1)S(=O)(=O)c1cccs1 (stereo not drawn) | inactive: 1.04% |
| CN(C)c1ccc(C(CNS(=O)(=O)c2ccc(Cl)cc2)N2CCOCC2)cc1 (stereo not drawn) | inactive: 10.1% |
| O=C(NCC1(c2ccccc2)CCCC1)C(=O)Nc1cccc(Br)c1 | inactive: 2.74% |
| Cc1cccc(C)c1NC(=O)Cn1nnc(C(=O)NCc2ccc(F)cc2)c1N | inactive: 1.89% |
| Cc1oc2c(C)c3oc(=O)c(CC(=O)N4CCCCC4)c(C)c3cc2c1C | inactive: 10.8% |
| CCc1nn(C(C)C(=O)N2CCN(c3ccccc3)CC2)c(=O)c2cc3occc3n12 (stereo not drawn) | inactive: 0.766% |
| CCCN(CCC)C(=O)C(Cc1ccccc1)NS(=O)(=O)c1ccc2c(c1)c(=O)n(C)c(=O)n2C (stereo not drawn) | inactive: 16.2% |
| Cn1c(=O)c2c(nc(Oc3ccccc3Cl)n2Cc2ccc(C#N)cc2)n(C)c1=O | inactive: -4.11% |
| Cc1ccc(CNC(=O)c2c(C)oc3ncnc(N4CCOCC4)c23)cc1 | inactive: 2.15% |
| Cc1ccc(-n2nc(C)c(C(=O)O)c2-n2cccc2)cc1 | inactive: 8.08% |
| COc1ccc(/C=C\c2onc(C)c2S(=O)(=O)N2CCC(C(=O)Nc3cccc(OC)c3)CC2)cc1 | inactive: -24.6% |
| Cc1ccc(S(=O)(=O)Nc2ccc3nc(-c4ccc(F)cc4)oc3c2)cc1 | inactive: -0.973% |
| CCC(C)NC(=O)CCC(=O)N1Cc2ccccc2Oc2ncccc21 (stereo not drawn) | inactive: 17.9% |
| CC1=C(C(=O)N2CCN(c3ccccc3)CC2)C2(CCCCC2)OC1=O | inactive: -2.59% |
| COc1cc(NC(=O)Cn2c(=O)ccc3cc(S(=O)(=O)N4CCCC4)ccc32)cc(OC)c1 | inactive: -18% |
| O=C(NCc1ccccc1)c1cc2ccc3cccnc3c2[nH]1 | inactive: -0.457% |
| CCc1ccc(-n2c(=O)c3c4c(sc3n(CC(=O)c3ccc(Br)cc3)c2=O)CCC4)cc1 | inactive: 12.7% |
| Cc1ccc(NC(=O)Cn2cc(S(=O)(=O)Cc3ccc(F)cc3)c3ccccc32)cc1Cl | inactive: -16.1% |
| CCOc1ccccc1C(=O)N(Cc1sccc1C)C1CCS(=O)(=O)C1 (stereo not drawn) | inactive: -13.4% |
| COc1ccc(-c2cc(C(F)(F)F)nc(SCC(=O)NCCc3ccccc3)n2)cc1 | inactive: -0.825% |
| O=C(Nc1ccccc1)c1nc[nH]c1C(=O)O | inactive: -0.162% |
| COc1cc(OC)c(N(C)C(=O)c2c(C)oc3ncn(CC(C)C)c(=O)c23)cc1Cl | inactive: 0.778% |
| Cc1c(-c2ccccc2)nc2c(Cl)cccc2c1C(=O)OCC(=O)c1ccc(F)cc1 | inactive: 3.89% |

| Compound | activity change, negative = cytotoxicity |
| --- | --- |
| CCOC(=O)CSc1nc2cc3c(cc2c(=O)n1Cc1ccc(C(=O)NCCc2ccc(OC)c(OC)c2)cc1)OCO3 | inactive: 7.77% |
| O=C(CSCc1cnn(-c2ccccc2)c1-n1cccc1)NCc1cccc(Cl)c1 | inactive: -17.3% |
| CCCSc1ncc(Cl)c(C(=O)Nc2sc3c(c2C(=O)OC)CCCC3)n1 | inactive: 13.8% |
| N#Cc1c(-n2ncnc2-c2ccc(F)cc2)sc2c1CCCCC2 | inactive: 2.4% |
| COc1cccc(N2CC(NC(=O)c3cc(Cl)ccc3OC)CC2=O)c1 (stereo not drawn) | inactive: 2.29% |
| COc1ccc(OC)c(NS(=O)(=O)c2ccc(N3CCCCS3(=O)=O)cc2)c1 | inactive: -4.5% |
| Cc1ccc(C(=O)N/C(=C\c2ccc(Cl)cc2)C(=O)NC2CCCCC2)cc1 | inactive: 3.56% |
| CCCNC(=O)C1CCC(Cn2c(=O)c3sccc3n(CC(=O)NCc3cccc(OC)c3OC)c2=O)CC1 (stereo not drawn) | inactive: -1.8% |
| CCOc1ccc(N2CC(NC(=O)C3CCCC3)CC2=O)cc1 (stereo not drawn) | inactive: 13.5% |
| Cc1ccc(C)c(N2CCN(CCCNC(=O)c3ccc4nc(CCc5ccccc5)oc4c3)CC2)c1 | inactive: 3.4% |
| Cc1cc(C)c2c(NC(=O)c3ccccc3)c(C(=O)Nc3ccc(F)cc3)sc2n1 | inactive: -4.63% |
| COc1ccc(NC(=O)c2ccco2)cc1NC(=O)c1cc(OC)c(OC)c(OC)c1 | inactive: 0.838% |
| COc1ccc(C(=O)c2sc(Nc3ccccc3)nc2N)cc1 | inactive: 7.66% |
| CC(=O)c1cccc(NC(=O)CN(c2cc(C)cc(C)c2)S(=O)(=O)c2c(C)noc2C)c1 | inactive: 0.448% |
| N#Cc1c(C(F)(F)F)cc(-c2cccs2)nc1SCC(=O)Nc1cccc(Cl)c1 | inactive: 0.826% |
| O=C(Nc1ccccc1Cl)N1CCSc2ccccc21 | inactive: 19.3% |
| CCOC(=O)Cn1c(=O)n(C2CCCCC2)c2nc(-c3c(F)cccc3Cl)nc(C(N)=O)c21 | inactive: 6.69% |
| CC(C)CCn1c(/C=C/c2ccccc2)nc2ccccc21 | inactive: -11% |
| Cc1cc(C)cc(NC(=O)CSc2nc3nccnc3c(=O)n2CCc2c[nH]c3ccccc23)c1 | inactive: -10.9% |
| Cc1ccc(NC(=O)c2cnc3sc(N4CCOCC4)nn3c2=O)cc1N(C)C | inactive: 13.7% |
| COc1ccc(Nc2nc(C)nc(N)c2S(=O)(=O)c2ccccc2)cc1 | inactive: -15.7% |
| O=C(c1ccc2c(c1)N(Cc1ccccc1)C(=O)c1ccccc1S2(=O)=O)N1CCN(Cc2ccccc2)CC1 | inactive: -7.79% |
| Cc1cccc(NC(=O)Cn2c(=O)n(CCCCCC(=O)NCc3ccc4c(c3)OCO4)c(=O)c3sccc32)c1 | inactive: -2.93% |
| COC(=O)c1scc(-c2ccc(C)cc2)c1S(=O)(=O)Nc1cc(C)ccc1OC | inactive: -4.5% |
| Nc1nn(-c2ccccc2)nc1C(=O)OCc1ccccc1 | inactive: 5.4% |

| Compound | activity change, negative = cytotoxicity |
| --- | --- |
| CC1CCCN(CCCNC(=O)Cn2ncc3c([nH]c4ccccc43)c2=O)C1 (stereo not drawn) | inactive: 24% |
| CCCCn1c(=O)nc2n(-c3ccc(Br)cc3)c3ccccc3cc-2c1=O | inactive: 10.6% |
| CC(C)(C)C(=O)Nc1ccccc1C(=O)OCc1cc(=O)n2ccsc2n1 | inactive: 0.296% |
| CCc1ccccc1-n1nnc(-c2nsc(NC(=O)c3ccc(C)c(C)c3)n2)c1C | inactive: -17.1% |
| Cc1ccc(-n2c(SCC(=O)N3CCCc4ccccc43)nc3c([nH]c4ccccc43)c2=O)cc1 | inactive: -2.03% |
| COCCCNC(=O)CSC1=Nc2ccccc2C2=NC(CCC(=O)NCc3ccc(OC)cc3)C(=O)N12 (stereo not drawn) | inactive: 10.7% |
| COc1cccc(C(=O)Nc2nc(-c3ccc(Br)cc3)ns2)c1 | inactive: -6.28% |
| Cc1nc2ccc(S(=O)(=O)NCC(=O)Nc3ccc(F)cc3F)cc2s1 | inactive: 8.62% |
| Cc1ccc(S(=O)(=O)N2CCN(Cc3nc4ccc(C)cc4o3)CC2)c(C)c1 | inactive: -20.9% |
| Cc1ccc(-n2c(COCC(=O)O)nc3cccnc32)cc1 | inactive: 1% |
| Cc1ccc(Cl)cc1N1CCN(C(=O)c2cc3c(=O)oc4ccccc4c3s2)CC1 | inactive: 0.583% |
| CCN1CCN(C(c2ccccc2Cl)c2c(O)cc(C)n(CCOC)c2=O)CC1 (stereo not drawn) | inactive: 5.14% |
| Cc1ccc(/C=C(\C#N)C(=O)Nc2cccc(Br)c2)o1 | inactive: 6.79% |
| Fc1ccccc1N1CCN(c2nccn3nc(-c4ccc(Br)cc4)cc23)CC1 | inactive: 2.15% |
| COc1ccc(CNC(=O)CS(=O)Cc2nc(-c3cccc(C)c3)oc2C)cc1 (stereo not drawn) | inactive: 0.807% |
| Cc1ccccc1NC(=O)c1oc2c(c1C)-c1nn(Cc3cccc(Cl)c3)cc1CC2 | inactive: -3.16% |
| Cc1ccc(S(=O)(=O)NCC2CCC(C(=O)NCCCOC(C)C)CC2)cc1 (stereo not drawn) | inactive: -4.02% |
| CCCCN(CC)CCNC(=O)c1cc2c(=O)n(CC)c3ccccc3c2s1 | inactive: 18.8% |
| CCCCNc1nc2ccccc2c2nc(-c3ccccc3)nn12 | inactive: -6.17% |
| CC(C)(Oc1ccc(Br)cc1)C(=O)Nc1cc(-c2nc3ccccc3[nH]2)ccc1Cl | inactive: 0.0884% |
| O=C(CN1N=C(c2ccc(Cl)cc2)CCC1=O)NCCc1ccccc1 | inactive: 16.8% |
| COc1ccccc1CNC(=O)CN1N=C(c2ccccc2)CCC1=O | inactive: -8.94% |
| Cc1ccc(NC(=O)Cn2nc(Cc3ccncc3)c3ccccc3c2=O)c(Cl)c1 | inactive: 10.5% |
